Measurements reported in PubChem BioAssay AID485344 (National Center for Advancing Translational Sciences (NCATS), 2010).
Several values for one entry are separate records, joined by “and”; a condition that tells them apart may be missing. Identical values can stand only once. About 6,900 (2%) of roughly 340,000 compounds were called active. Cut-off read from the data, not from the text of the source: active = inhibition above about 30%; inactive = below that, where a call was filed. This is a selection; strong and weak results do not stand in their true shares. The source gives no active or inactive call for entries shown without one.

molecular target: D(2) dopamine receptor (Homo sapiens) (UniProt P14416); experiment: HTS Assay for Allosteric Antagonists of the Human D2 Dopamine Receptor: Primary Screen for Antagonists; conditions: HEK293 TREx D2 cells, calcium flux, dopamine EC80; at 10 µM; stronger effect = higher value; note: 0% is about no effect
Method in brief: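 Tetracycline-induced HEK293 T-REx cells expressing D2 force-coupled to calcium signalling were dye-loaded, exposed to compound for 180 s, then challenged with an EC80 of dopamine; calcium flux was followed kinetically for a further 180 s.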

Chain of UniProt P14416 (P14416 whole entry, looked up): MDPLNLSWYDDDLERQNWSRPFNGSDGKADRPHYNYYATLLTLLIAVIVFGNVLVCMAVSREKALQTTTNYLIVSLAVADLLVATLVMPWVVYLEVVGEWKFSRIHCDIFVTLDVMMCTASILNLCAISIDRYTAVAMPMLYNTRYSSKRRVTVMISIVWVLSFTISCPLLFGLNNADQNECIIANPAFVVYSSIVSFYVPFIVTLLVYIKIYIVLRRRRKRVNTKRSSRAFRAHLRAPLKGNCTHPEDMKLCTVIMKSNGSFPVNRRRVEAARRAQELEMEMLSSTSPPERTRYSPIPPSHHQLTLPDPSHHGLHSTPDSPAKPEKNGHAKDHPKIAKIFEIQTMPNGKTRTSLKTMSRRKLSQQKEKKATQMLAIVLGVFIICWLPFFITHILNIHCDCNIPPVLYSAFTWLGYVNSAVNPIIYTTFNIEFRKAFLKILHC

SMILES	inhibition
COc1ccc(CNC(=O)C2CCCN(c3nnc(C)c4c(C)n(-c5ccc(C)cc5)nc34)C2)cc1 (stereo unspecified)	-18.4%
CCOc1c(Cl)cc(C(=O)N(Cc2ccc(N(C)C)cc2)Cc2ccco2)cc1Cl	1.31%
COc1ccccc1CNC(=O)CCNS(=O)(=O)c1ccc2c(c1)oc(=O)n2C	-3.08% and active: 67%
CNC(=O)c1ccc2c(c1)N(Cc1ccccc1Cl)C(=O)c1ccccc1S2	-9.87%
O=C(Cn1c(=O)nc(-c2ccccc2F)c2cc(Cl)ccc21)NCCCc1ccccc1	-11.5%
Cn1c2ccccc2c2cnn(CC(=O)Nc3ccccc3F)c(=O)c21	4.85%
CC(C)CCn1c(=O)c2cccnc2n(CC(=O)Nc2ccccc2F)c1=O	-2.45%
Cc1cc(C)cc(NC(=O)c2c(C)oc3nc(C)nc(N4CCCC4)c23)c1	4.62%
CCc1ccc(OCC(=O)Nc2ncn[nH]2)c(Br)c1	19.6%
CCOc1ccc(Nc2nn(-c3ccc(OC(F)(F)F)cc3)nc2C(C)=O)cc1	-7.04%
COc1cccc(Cn2c(-c3nonc3NC(C)=O)nc3ccccc32)c1	19%
COc1cccc(-c2noc(-c3cc(C(C)C)[nH]n3)n2)c1OC	9.62%
CCOc1ccc(NC(=O)CCc2c(C)nc3c(-c4ccccc4)c(C)nn3c2C)cc1	13.7%
COC(=O)c1ccc(Cn2c(SCc3ccc(F)cc3)nc3ccncc32)cc1	12.2%
O=c1ccc2cc(S(=O)(=O)Nc3ccc(OC(F)(F)F)cc3)ccc2[nH]1	-12.8%
Cc1ccc(CNC(=O)CSC2=Nc3ccccc3N=C(c3ccc(F)cc3)C2)cc1	0.835%
Cc1c(C)n(O)c2ccc3nonc3c12	active: 41.1%
CCOC(=O)N1CCN(CC(=O)Nc2ccc(Oc3ccccc3)cc2)CC1	active: 43.3%
COCCCN1C(=O)c2oc3ccccc3c(=O)c2C12C(=O)N(C)c1ccccc12 (stereo unspecified)	-1.6%
COc1ccc(CC(=O)N2CCc3cc(OC)c(OC)cc3C2COc2ccc3c(C)cc(=O)oc3c2)cc1OC (stereo unspecified)	17.3%
Cc1ccc(S(=O)(=O)c2nc(-c3ccccc3F)oc2NCc2ccccc2)cc1	16.7%

SMILES	inhibition
Cc1nc(N2CCOCC2)c2c(C(=O)N3CCN(c4ccccc4)CC3)c(C)oc2n1	3.8%
CCOC(=O)c1cccc(NC(=O)NC(C)c2c(-n3cccc3)sc3c2CCN(C)C3)c1 (stereo unspecified)	-6.04%
Cc1cc2c(cc3c(SCC(=O)Nc4ccc(Cl)cc4F)nncn32)o1	-11.9%
CN(C)c1nc2n(c(=O)n1)C(C#N)CS2 (stereo unspecified)	active: 33.5%
Cc1c(C(=O)NCc2ccccc2CN2CCCC2)oc2ccc(F)cc12	active: 58.4%
COc1ccc(CNC(=O)c2ccc(NC(=O)N3CCSc4ncccc43)cc2)cc1	5.75%
Cc1ccccc1C(=O)N1CCC(C(=O)Nc2ccc(F)cc2F)CC1	-1.25%
Cc1cccc(S(=O)(=O)c2cn(C)c3cc(N4CCN(c5ccccc5)CC4)c(F)cc3c2=O)c1	-14.2%
Cc1ccc(Cn2c(C)c3cnn(CC(=O)NCCc4ccc(Cl)cc4)c(=O)c3c2C)cc1	-5.81%
COc1ccc(/C=N/N2C(=O)CSC2=S)cc1Br	active: 33.3%
CCN1CCN(c2ccc(S(=O)(=O)N3CCOCC3)cc2NC(=O)CCOc2ccccc2)CC1	active: 31.8%
COc1cccc(CCNC(=O)c2cnc3sc(N4CCOCC4)nn3c2=O)c1	-6.98%
COc1ccc(C(C(=O)NC(C)(C)C)N(CCc2ccc(OC)c(OC)c2)C(=O)CCC(=O)Nc2cc(C)on2)cc1 (stereo unspecified)	active: 34.5%
CCOc1ccc(C(=O)Nc2ccc(-n3nncc3-c3ccc(OC)cc3)cc2)cc1	-7.6%
COc1ccccc1NC(=O)C1=C(C)Nc2nc(-c3ccco3)nn2C1c1ccccc1F (stereo unspecified)	22.6%
CN(C)S(=O)(=O)c1ccc(N2CCCC2)c(C(=O)NNC(=O)COc2ccccc2F)c1	active: 57%
Cn1nnnc1SCCNCc1ccc(Cl)c(Cl)c1	-4.93%
S=C(Nc1cccc(Cl)c1Cl)NC1CCN(Cc2ccccc2)CC1	active: 71.1%
CCCc1cc(=O)[nH]c(Nc2ccc(OCC)cc2)n1	1.23%
O=C(CSc1nc(-c2ccccc2)nc2cc(=O)[nH]n12)Nc1ccccc1	7.96%
CCc1nc(-c2ccc(C)c(S(=O)(=O)N3CCN(c4ccc(C(C)=O)cc4)CC3)c2)no1	-7.17%

SMILES	inhibition
Cc1ccccc1C(=O)N1c2ncnn2C2(CCCCC2)[C@@H]2CCCC[C@@H]21	12.5%
CC(C)Nc1nc2c(-c3cccc(Br)c3)nnn2c2ccccc12	4.2%
COC(=O)C1=C(C)N(C(C)C)C(=O)C1(NC(=O)c1ccc(C(C)(C)C)cc1)C(F)(F)F (stereo unspecified)	-6.33%
Cc1ccccc1Cn1c(=O)n(CCC(=O)NCc2ccco2)c(=O)c2sccc21	4.21%
O=C(NCCn1cc(SCc2ccc(F)cc2)c2ccccc21)c1cccs1	-11%
CCc1ccc(NC(=O)Cn2cc(S(=O)(=O)c3ccc(F)cc3)c(=O)c3cc(OC)ccc32)cc1	-13.9%
COc1ccc(NC(=O)C2CCC(CNS(=O)(=O)c3ccc(Br)s3)CC2)c(OC)c1 (stereo unspecified)	-0.604%
COc1cc(NC(=O)N2CCC(CN3CCCCCC3)CC2)cc(OC)c1OC	6.57%
CCCOc1ccc(CNC(=O)c2ccc3c(c2)N(CC)CCS3)cc1	active: 50.2%
COc1cc(CNCCSc2nnnn2C)ccc1OCc1ccc(Cl)cc1Cl	-2.54%
Cc1ccc(NC(=O)Cn2nc3c(cc2=O)CCCC3)cc1Cl	-12.4%
CCN(C(=O)CSc1nc2ccccc2nc1Cc1ccc(F)cc1)c1cccc(C)c1	10.1%
CC(Oc1ccc(F)cc1)C(=O)Nc1cc(S(=O)(=O)N2CCCCC2)ccc1N1CCOCC1 (stereo unspecified)	active: 37.3%
Cc1nc(-n2nc(C)c(CCC(C)C)c2C)sc1C(=O)Nc1cccc(Cl)c1	-16.4%
CC(C)CN(C(=O)Cn1nnc(-c2ccc(F)cc2)n1)C1CCS(=O)(=O)C1 (stereo unspecified)	active: 55.3%
Cc1cccc(C)c1NC(=O)c1sc(-n2nc(C)c(Cc3ccc4c(c3)OCO4)c2C)nc1C	9.91%
Clc1ccc(NCc2nc3ccccc3n2CCOc2ccccc2)cc1	3.4%
c1cnc2c(C3NCCc4c3[nH]c3ccccc43)cccc2c1 (stereo unspecified)	active: 35.8%
CC(C)c1ccccc1NC(=S)N1CCN(Cc2ccc3c(c2)OCO3)CC1	active: 33.4%
